# Measured values reported in the antibiotic and cytotoxicity screens of Wong et al. (2023).
# This is one part of the list.
# Tested on: HSkMC (human skeletal muscle cells)
# Test: cytotoxicity call (relative viability < 0.9)
# Conditions: 10 µM
row,SMILES,cytotoxicity call
1,C[C@@H]1CCCCO[C@@H](CN(C)CC2CCCCC2)[C@@H](C)CN([C@@H](C)CO)C(=O)c2cc(NC(=O)c3ccccc3)ccc2O1,inactive
2,O=C(C1=C[C@@H](c2csc3ccccc23)C[C@@H](OCc2ccc(CO)cc2)O1)N1CCN(Cc2ccccc2)CC1,inactive
3,C[C@]12C(=O)N(CCCCCO)[C@@H]3C(=O)N(c4ccc(Cl)cc4)CC=C[C@]31O[C@@H]1/C=C\CCCOC(=O)[C@H]12,inactive
4,O=C(O)c1ccco1,inactive
5,COc1ccc(NC(=O)Nc2ccc3c(c2)C(=O)N([C@@H](C)CO)C[C@@H](C)[C@H](CN(C)S(=O)(=O)c2ccc(Cl)cc2)OCCCC[C@@H](C)O3)cc1,inactive
6,COc1ccc(CN2CCN(C(c3ccc(F)cc3)c3ccc(F)cc3)CC2)c(OC)c1OC.Cl,inactive
7,COc1ccc(C#Cc2cnc3c(c2)C(=O)N([C@@H](C)CO)C[C@H](C)[C@@H](CN(C)C(=O)CN(C)C)O3)cc1,inactive
8,CCCNC(=O)N(C)C[C@H]1Oc2cc(-c3ccc(C)cc3)ccc2S(=O)(=O)N([C@@H](C)CO)C[C@@H]1C,inactive
9,N=C1NC(=O)CS1,inactive
10,COc1ccc(S(=O)(=O)Nc2cccc3c2O[C@H](CN(C)S(=O)(=O)c2ccc(OC)cc2)[C@H](C)CN([C@H](C)CO)C3=O)cc1,inactive
11,CC1CC(OC(=O)C(O)c2ccccc2)CC(C)(C)C1 (stereo not drawn),inactive
12,C[C@H](CO)N1C[C@H](C)[C@H](CN(C)C(=O)c2cccc(F)c2)Oc2cc(-c3ccncc3)ccc2S1(=O)=O,inactive
13,CC(C)NC(=O)N(C)C[C@@H]1Oc2c(NC(=O)NC3CCCCC3)cccc2C(=O)N([C@H](C)CO)C[C@@H]1C,inactive
